These results are taken from PubChem BioAssay AID1240 (Sanford-Burnham Center for Chemical Genomics, 2008).

The whole screen tested about 50,000 compounds, of which about 800 (1.6%) showed an effect of 50% or more. This is one part of the list.

For the experiment, the target named is Bcl-2-like protein 10 (Homo sapiens) (UniProt Q9HD36). Nature of the experiment: Phenotype converters, Bcl-B/TR3 peptide binding displacement, primary biochemical FP (AID 1240).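 Note: 0% = Bcl-B with tracer peptide and DMSO and 100% = tracer peptide lacking Bcl-B.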 The following applies: GST-Bcl-B / FITC-TR3 peptide fluorescence polarization; stronger effect = higher value; compound at 3.75 mg/L.
Sequence of UniProt Q9HD36 (Q9HD36 whole entry, looked up): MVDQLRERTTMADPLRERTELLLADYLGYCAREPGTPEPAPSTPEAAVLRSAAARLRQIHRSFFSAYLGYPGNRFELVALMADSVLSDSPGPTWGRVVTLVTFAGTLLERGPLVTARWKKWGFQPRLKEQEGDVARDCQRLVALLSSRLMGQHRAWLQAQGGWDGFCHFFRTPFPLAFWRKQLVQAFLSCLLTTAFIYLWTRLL
In the case of `COc1cc(OC)c(C=C2C(=O)N(C)C(=O)N(C)C2=O)cc1Br`, the displacement is 1.1%.
With `O=C1C(Cl)=C(N2CCN(c3ccccc3)CC2)C(=O)N1c1ccc(Br)cc1`, the displacement was -7%.
To `Cc1ccccc1NC1SC(=O)N(c2ccccc2)C1=O` (centres undefined) belongs 1.8%; to `COC(=O)CCN1C(=O)/C(=C/c2cccc(OCc3ccccc3)c2)SC1=S`, -1.3%.
With `O=Cc1cc(Br)ccc1OCc1ccccc1F`, the displacement is -13.8%.
For the compound `CCOc1ccccc1NC(=O)c1cc(C(=O)O)ccc1C(=O)O`, the displacement was 15.9%.
As to `O=C(CN(c1ccc(Br)cc1)S(=O)(=O)c1ccccc1)N1CCc2ccccc2C1`, the displacement was found to be 1.2%.
To `Cc1ccc(/C=C2\SC(=S)N(c3ccc(F)cc3)C2=O)o1` belongs 101%.
To `COc1ccc(N(C(C)C(=O)N/N=C/c2cccs2)S(C)(=O)=O)cc1` (centres undefined) belongs 3.9%; to `Cc1ccc(N2CCN(/N=C\c3ccncc3)CC2)cc1`, -7.4%; to `O=C(Oc1ccc2c(C(F)(F)F)cc(=O)oc2c1)c1ccccc1`, 3.2%.
In the case of `Cc1csc(Nc2ccccc2)[n+]1CCO`, the displacement amounted to 4.4%.
To `COc1ccccc1-c1cc(-c2ccccc2)nc(SC)c1C#N` belongs 5.1%; to `COc1cc(NC(=O)COc2ccc([N+](=O)[O-])cc2)ccc1NC(=O)c1ccco1`, 3.7%.
`CCOC(=O)c1cnc2cc(-c3cccc(F)c3)[nH]n2c1=O`: the displacement was determined as 11.6%.
With `COCCNC(=O)Cc1ccc(Br)cc1`, the displacement turned out to be 13.1%.
To `Clc1cccc(Cl)c1OCCN1CCCC1` belongs 3.9%; to `CC(C)OC(=O)c1c(NC(=O)C2CC=CCC2C(=O)O)sc2c1CCCC2` (centres undefined), -2.8%.
Regarding `COc1ccc(S(=O)(=O)/N=C2C=C/C(=N\S(=O)(=O)c3ccc(OC)cc3)C=C/2Cl)cc1`, the displacement amounted to 16.5%.
With `CC(C)(C)C(=O)Nc1ccc(S(=O)(=O)Nc2nccs2)cc1`, the displacement was -4.8%.
Under `CCOc1cc([N+](=O)[O-])cc(/C=C2/SC(=S)NC2=O)c1O` stands 14%; under `O=C(CSc1nc2ccccc2o1)N=Nc1c(O)n(CN2CCCC2)c2ccccc12`, -16.2%.
Under `CCOC(=O)C1=NN(C(=O)c2ccc(Cl)cc2)C(O)(C(C)(C)C)C1` (centres undefined) stands 0.6%.
As to `Cc1cc(C)c(-c2nn(-c3ccccc3)cc2C=O)c(C)c1`, the displacement stood at 10.9%.
For the compound `COc1cccc(/C=C2/C(=O)NC(=O)N(C)C2=O)c1O`, the displacement is -5.3%.
With `O=C(CCNc1cccc(Br)c1)c1cccs1`, the displacement is 0.1%.
`CCOc1ccccc1NC(=O)C1(c2ccccc2)CC1(Cl)Cl` (centres undefined): the displacement is -4.5%.
As for `CCc1c(C)nc2cc(-c3cccc(C)c3)[nH]n2c1=O`, the displacement is 8.8%.
Under `CN1CCC(=NNC(=O)c2cccc([N+](=O)[O-])c2)CC1` stands 10.6%; under `Cc1ccccc1C(=O)Nc1c(C(=O)N2CCN(C)CC2)cnn1-c1ccccc1`, 4.7%.
For the compound `O=C(/C=C/c1ccccc1)NC(=S)Nc1ccc(O)c(-c2nc3ccccc3o2)c1`, the displacement is 14.2%.
Under `COCCCNC(=O)CC(=O)N/N=C/c1cc(OC)c(OC)c(OC)c1` stands -9.1%.
Regarding `Cc1ccc(S(=O)(=O)CCc2nc3ccccc3s2)cc1C`, the displacement is 2.5%.
Under `CCc1ccc(NC(=O)CCCOc2ccccc2)cc1` stands -1.9%.
Take `O=C(Nc1ccccc1)c1cccc(Br)c1`: the displacement was 12.3%.
To `CCN(CC)CCCNS(=O)(=O)c1ccc(Cl)cc1` belongs -5.5%; to `COc1cc(NC(=O)c2ccc(-c3cccc([N+](=O)[O-])c3)o2)ccc1NC(=O)c1ccco1`, 11.4%; to `COCCNC(=O)c1cc2n(n1)C(C(F)(F)F)CC(c1ccc(Cl)c(Cl)c1)N2` (centres undefined), 6.2%.
Take `Cc1oc(C(C)(C)C)cc1C(=O)Nc1ccc(O)c(C(=O)O)c1`: the displacement is -7.9%.
Under `Cc1cc(C)c(C(=O)/C(=C/c2ccc(I)cc2)c2ccccc2)c(=O)[nH]1` stands -1.1%.
Under `CCn1cc(C(=O)O)c(=O)c2cc([N+](=O)[O-])ccc21` stands 18.3%; under `O=C(Nc1ccc(N2CCCCC2)cc1)c1ccc(-c2ccccc2[N+](=O)[O-])o1`, -2.4%.
Consider `Cc1cccc(NC(=O)Cc2ccccc2)c1`, for which the displacement was determined as 4.7%.
To `COC(=O)c1sccc1NC(=O)c1cc(-c2ccccc2Cl)nc2ccccc12` belongs 22.7%; to `CC(C)(C)c1cc(C(=O)N/N=C/c2ccc(Cl)cc2Cl)n[nH]1`, -8%.
To `Cc1nnc(C)n1/N=C/c1ccc(Cl)cc1` belongs 11.4%; to `COc1cc(CN2CCN(S(=O)(=O)c3ccc(Cl)cc3)CC2)cc(OC)c1OC`, -6%; to `Cc1ccc(NCC(=O)N/N=C\c2cc(Br)cc(Br)c2OC(=O)c2cccc(F)c2)cc1`, -1.2%.
To `CCc1ccc(NC(=O)C(=O)NCCc2ccc(F)cc2)cc1` belongs 12.1%.
Take `CCn1c(O)c(N=Nc2nc3ccccc3s2)c2ccccc21`: the displacement was -0.9%.
Regarding `COc1ccc(/C=N/N=c2\sc3ccccc3n2C)c(OC)c1`, the displacement is -8.1%.
As for `Cc1cc(C)nc(NS(=O)(=O)c2ccc(NC(=O)CSc3ncn[nH]3)cc2)n1`, the displacement was determined as 5.3%.
As to `COc1ccccc1Nc1nc(Nc2ccccc2OC)nc(N2CCOCC2)n1`, the displacement is 9.3%.
On to `COc1ccc(C2CC(=O)Nc3c2cc(Br)c2ccccc32)cc1OC` (centres undefined), for which the displacement was -7.4%.
For the compound `CCOC(=O)c1c(NC(=O)C2CCCO2)sc(C(=O)N(CC)CC)c1C` (centres undefined), the displacement is -4%.
As to `O=S(=O)(Nc1ccc(Cl)cc1)c1ccc2c(c1)OCCO2`, the displacement was 3.3%.
Under `CC1=NN(C(=O)Cc2ccc([N+](=O)[O-])cc2)C(O)(c2ccc(Cl)cc2)C1` (centres undefined) stands 20.3%; under `COc1ccc(C(C2=C(O)CC(C)(C)CC2=O)C2C(=O)CC(C)(C)CC2=O)c2ccccc12` (centres undefined), -6.1%; under `CCOC(=O)c1c(NC(=O)c2cccc(F)c2)sc2c1CCC2`, -0.5%.
Consider `COC(=O)C1=C(C)NC(=O)NC1c1ccc(OCCO)c(OC)c1` (centres undefined), for which the displacement is -12.3%.
Under `CC(=O)/C=C(\C)Nc1ncn(-c2ccc(C)cc2)c1C(=O)c1ccccc1` stands 6%; under `C/C(=N/Nc1ccccc1[N+](=O)[O-])C1CC1`, -6.7%; under `COc1ccc(CC(=O)Nc2ccc(Br)c(C)c2)cc1`, 7.5%.
To `CCCCOC(=O)C1=C(C)NC2=C(C(=O)CC(C)(C)C2)C1c1cccc(Cl)c1` (centres undefined) belongs 8.4%.
For `Oc1ccc2ccccc2c1/C=N/Nc1ncc(Br)cn1`, the displacement was -7.4%.
To `COc1ccc(C(=O)Nc2ccccc2C(=O)NC(C(=O)N2CCOCC2)C(C)C)cc1` (centres undefined) belongs -9.5%; to `Cc1ccccc1C(=O)Nc1cccc(NC(=O)/C=C/c2ccc(-c3ccccc3[N+](=O)[O-])o2)c1`, 0.6%; to `CCCCOc1ccc(C(=O)OCCN2CCCCC2)c(O)c1`, -2.7%.
Consider `CC1(C)CC(Cc2ccccc2)(C(CO)CNCc2ccc(O)cc2)CCO1` (centres undefined), for which the displacement came out at 1.5%.
Take `C/C(=C\C(=O)c1ccccc1)Nc1cccc(Cl)c1Cl`: the displacement amounted to 0%.
To `O=C1NN(c2ccccc2)C(=O)/C1=C\c1ccc(Cl)cc1Cl` belongs 10.6%; to `C=CCN1C(=O)/C(=C/c2cc(Cl)ccc2O)SC1=S`, -1.2%; to `Cc1ccc(OCC(=O)N2CCC(Cc3ccccc3)CC2)c(C)c1`, 3.8%.
To `CCOc1ccc(N(CC(=O)NCc2ccc(Cl)cc2)S(=O)(=O)c2ccc(Br)cc2)cc1` belongs -4.6%; to `COc1ccc(C(=O)NCCN2CCOCC2)cc1[N+](=O)[O-]`, -9.1%.
Regarding `CCC1=NN(C(=O)c2ccc(Cl)cc2)C(O)(c2ccncc2)C1` (centres undefined), the displacement was -8.2%.
Regarding `CCCn1c2ccccc2c2nnc(SC(CC)C(=O)Nc3ccc(Cl)cn3)nc21` (centres undefined), the displacement worked out at 18.6%.
To `O=C(O)c1ccc(/C=C2\SC(=O)N(c3ccc(F)cc3)C2=O)cc1` belongs -9%; to `COc1cccc(C(=O)Nc2ccc(-c3nc4cc(C)c(C)cc4o3)c(O)c2)c1`, -4.4%.
Regarding `COc1ccccc1C1Nc2ccc(C(=O)c3ccccc3)cc2NC2=C1C(=O)CCC2` (centres undefined), the displacement is -7%.
In the case of `COc1ccc(CCN2C(=O)CC(N3CCN(Cc4ccc5c(c4)OCO5)CC3)C2=O)cc1OC` (centres undefined), the displacement worked out at 7.8%.
`CC(=O)c1cc(O)cc(S(=O)(=O)c2ccc(C)cc2)c1O`: the displacement is 4.7%.
On to `CCCOC(=O)c1c(-c2ccccc2Cl)csc1N`, for which the displacement is -8.2%.
To `CCOc1cccc(/C=N/NC(=O)CC2C(=O)NN=C2C)c1O` (centres undefined) belongs -20.8%.
As to `CCOC(=O)c1c(NC(=O)c2ccc(S(=O)(=O)N3CCCCC3)cc2)sc(C(C)=O)c1C`, the displacement is -10.4%.
Turning to `O=[N+]([O-])c1cccc(/C=N\N2CCN(c3ccc(Cl)cc3)CC2)c1`, the displacement is -3.3%.
`CCOc1ccccc1NC(=O)c1c(NC(=O)c2cccc(F)c2)sc2c1CCC(C)C2` (centres undefined): the displacement was -6%.
As to `COC(=O)c1cc(NC(=O)COc2ccccc2)cc(C(=O)OC)c1`, the displacement came to 0.4%.
Consider `O=C(O)c1ccc(/C=C2\SC(=S)N(c3cccc(C(F)(F)F)c3)C2=O)cc1`, for which the displacement came out at 0.2%.
As for `COc1ccccc1/C=C1/SC(=S)N(CCC(=O)Nc2nnc(C)s2)C1=O`, the displacement turned out to be 10.4%.
Under `Cc1ccc(C(=O)O)cc1N1C(=O)c2ccccc2C1=O` stands 7%.
Under `COc1ccccc1OCCCN1CCCCC1` stands 7.9%.
As for `COc1ccccc1-c1nnc(-c2ccco2)o1`, the displacement is -4.7%.
To `Cc1cc(C(=O)Nc2ccccc2C(=O)O)ccc1NC(=O)C(C)(C)C` belongs 11.9%; to `O=[N+]([O-])c1cccc(-c2nnc(-c3cccc(S(=O)(=O)N4CCOCC4)c3)o2)c1`, -8.7%; to `COc1ccc(N2C(=O)C=CC2=O)cc1`, 9.8%.
Under `COc1ccc(C(=O)Nc2ccc(S(=O)(=O)N3CCCC3)cc2)cc1` stands 29.5%; under `O=C(COc1ccc([N+](=O)[O-])cc1)Nc1ccc(O)cc1C(=O)O`, 10.5%.
To `Cc1cc([N+](=O)[O-])ccc1-c1ccc(C(=O)NC(C)(C)C)o1` belongs 11.2%; to `Cc1ccc(C2C3C(=O)N(c4cccc(C)c4)C(=O)C3N3CCCN23)cc1` (centres undefined), 0.1%; to `CC(C)COc1ccc(/C=C2\SC(=S)NC2=O)cc1`, 1.1%.
For the compound `CCOc1ccc(S(=O)(=O)N(CC(=O)NC(C)CC)c2ccc(C)cc2)cc1` (centres undefined), the displacement was 11.7%.
Regarding `C/C(=N\Nc1nnc2c(n1)[nH]c1ccccc12)c1cccs1`, the displacement amounted to 36.7%.
In the case of `CC(=O)c1ccc(NC(=S)NC(=O)c2ccccc2)cc1`, the displacement is 10.6%.
Regarding `Cc1ccc(-n2nc3cc(C)c(NC(=O)c4cccc([N+](=O)[O-])c4)cc3n2)cc1`, the displacement is -8.4%.
On to `C=CCn1c(/N=C/c2ccc(OC)c3cccc(OC)c23)nc2ccccc21`, for which the displacement is 6.9%.
For the compound `COc1cc(C=Nc2ccc(C)cc2C)ccc1O`, the displacement was 1.6%.
Under `CC(C)(C)c1ccc(S(=O)(=O)NNc2ccccc2)cc1` stands -0.9%; under `O=[N+]([O-])c1ccc2nccc(Cl)c2c1`, 14%.
